Test results from article PMC5791736.
Numbering of substitutions follows the chain as printed. Results are given in words; binding and its absence hold for the method and conditions named. For some of these results: Binding seen in cells or lysates may run through a third protein. Some entries that bind do so weakly or less than the wild type. For some of these results: Tags and fused reporters may be left off the sequences shown. Each block holds one substance with its values, some of them ahead of it.

The chains behind the UniProt entries cited, without tags or fusion partners. Where a name states a change or a piece, a line headed by the entry shows the natural chain unless it says otherwise.
UniProt Q8TDY2: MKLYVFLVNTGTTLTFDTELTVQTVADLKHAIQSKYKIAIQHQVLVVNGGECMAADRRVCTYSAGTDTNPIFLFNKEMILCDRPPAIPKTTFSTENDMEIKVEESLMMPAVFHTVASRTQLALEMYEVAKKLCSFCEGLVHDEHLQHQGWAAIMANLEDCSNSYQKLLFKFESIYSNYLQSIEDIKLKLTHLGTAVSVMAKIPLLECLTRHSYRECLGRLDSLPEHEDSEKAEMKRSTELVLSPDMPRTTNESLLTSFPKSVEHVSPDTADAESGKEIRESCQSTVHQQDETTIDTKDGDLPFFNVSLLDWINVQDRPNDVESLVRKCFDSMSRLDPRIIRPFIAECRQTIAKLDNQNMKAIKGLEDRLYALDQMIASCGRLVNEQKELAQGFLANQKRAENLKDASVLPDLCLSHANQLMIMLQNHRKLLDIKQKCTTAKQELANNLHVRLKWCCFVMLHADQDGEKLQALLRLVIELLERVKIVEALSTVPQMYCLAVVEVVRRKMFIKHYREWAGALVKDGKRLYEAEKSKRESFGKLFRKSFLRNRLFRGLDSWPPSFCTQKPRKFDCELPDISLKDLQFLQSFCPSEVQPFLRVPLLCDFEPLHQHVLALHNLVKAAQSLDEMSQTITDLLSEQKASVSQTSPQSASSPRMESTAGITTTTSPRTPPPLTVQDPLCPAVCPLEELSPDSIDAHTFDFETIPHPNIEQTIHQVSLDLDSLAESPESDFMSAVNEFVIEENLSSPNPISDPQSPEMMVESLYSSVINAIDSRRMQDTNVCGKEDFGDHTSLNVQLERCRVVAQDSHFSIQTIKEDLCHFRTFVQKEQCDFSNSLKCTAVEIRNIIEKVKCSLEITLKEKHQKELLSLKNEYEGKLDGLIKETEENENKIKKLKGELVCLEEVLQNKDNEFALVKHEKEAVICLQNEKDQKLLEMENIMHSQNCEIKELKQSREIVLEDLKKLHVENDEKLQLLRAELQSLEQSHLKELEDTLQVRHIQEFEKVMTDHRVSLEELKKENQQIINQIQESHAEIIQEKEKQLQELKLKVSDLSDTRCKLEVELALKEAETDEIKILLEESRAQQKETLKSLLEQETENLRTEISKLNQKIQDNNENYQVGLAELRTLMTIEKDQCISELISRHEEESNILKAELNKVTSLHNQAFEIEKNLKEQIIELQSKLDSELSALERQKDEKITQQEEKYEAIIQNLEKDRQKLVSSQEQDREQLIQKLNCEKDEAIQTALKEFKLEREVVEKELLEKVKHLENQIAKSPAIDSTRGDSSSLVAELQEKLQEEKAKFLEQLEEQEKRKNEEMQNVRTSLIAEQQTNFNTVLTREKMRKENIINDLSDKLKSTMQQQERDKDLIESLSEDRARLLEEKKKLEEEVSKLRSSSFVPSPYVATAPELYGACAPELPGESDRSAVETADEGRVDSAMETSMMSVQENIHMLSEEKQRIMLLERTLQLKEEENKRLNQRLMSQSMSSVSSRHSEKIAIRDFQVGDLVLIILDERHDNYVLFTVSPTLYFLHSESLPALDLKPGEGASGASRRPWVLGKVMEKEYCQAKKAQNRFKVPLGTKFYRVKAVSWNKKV

Columns and labels:
[1] = target: T1, NTAP (FLAG-HA)-CCPG1 (human) (UniProt Q9ULG6); experiment: co-IP; A549 stably expressing NTAP-CCPG1 or NTAP empty vector, anti-FLAG beads, immunoblot for endogenous proteins
T1 sequence: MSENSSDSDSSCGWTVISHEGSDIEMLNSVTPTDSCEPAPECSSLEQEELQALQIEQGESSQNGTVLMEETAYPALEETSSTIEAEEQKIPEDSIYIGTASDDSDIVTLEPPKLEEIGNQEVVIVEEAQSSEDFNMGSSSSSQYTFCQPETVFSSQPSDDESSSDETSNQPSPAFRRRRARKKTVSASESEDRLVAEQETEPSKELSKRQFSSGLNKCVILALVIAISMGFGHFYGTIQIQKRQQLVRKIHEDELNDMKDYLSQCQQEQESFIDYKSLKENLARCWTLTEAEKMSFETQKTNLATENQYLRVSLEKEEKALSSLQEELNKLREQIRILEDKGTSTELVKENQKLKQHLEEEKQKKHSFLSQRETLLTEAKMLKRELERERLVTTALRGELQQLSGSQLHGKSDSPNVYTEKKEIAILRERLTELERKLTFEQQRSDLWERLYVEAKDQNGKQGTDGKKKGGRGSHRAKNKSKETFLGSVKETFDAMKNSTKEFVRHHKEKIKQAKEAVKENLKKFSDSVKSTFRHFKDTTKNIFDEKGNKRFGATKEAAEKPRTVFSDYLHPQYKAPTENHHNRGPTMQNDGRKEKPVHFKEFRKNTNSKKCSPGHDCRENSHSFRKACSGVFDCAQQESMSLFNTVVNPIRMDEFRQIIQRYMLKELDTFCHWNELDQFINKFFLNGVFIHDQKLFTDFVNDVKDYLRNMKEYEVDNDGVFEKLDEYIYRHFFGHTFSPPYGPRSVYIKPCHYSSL

[2] = target: T2, CCPG1 (endogenous, A549) (human (endogenous in A549)) (UniProt Q9ULG6); experiment: co-IP; endogenous CCPG1 immunoprecipitated from A549 lysate, cells untreated or EBSS starved for 1 hr; negative control IgG; immunoblot
T2 sequence: T1 sequence

[3] = target: T3, myc-CCPG1 (full-length, 6x myc) (human) (UniProt Q9ULG6); experiment: co-IP; HeLa ΔCCPG1-1 cells transfected with FLAG-FIP200 and myc-CCPG1 variants, immunoprecipitated on myc; immunoblot
T3 sequence: T1 sequence

[4] = target: T4, myc-CCPG1 mtFIR1+2 (full-length) (human) (UniProt Q9ULG6); experiment: as above
T4 sequence: T1 sequence with S22A, D23A, I24A, E25A, S104A, D105A, I106A, L109A

[5] = target: T5, GFP-CCPG1 (full-length) (human) (UniProt Q9ULG6); experiment: co-IP; HEK293 lysates of singly transfected cells mixed, GFP-Trap magnetic beads, IGEPAL IP buffer, 4°C, 2 h; immunoblot
T5 sequence: T1 sequence

[6] = target: T6, GFP-CCPG1 mtLIR W14A I17A (human) (UniProt Q9ULG6); experiment: as above
T6 sequence: T1 sequence with W14A, I17A

myc-CCPG1 NTD (human) = target: T7, myc-CCPG1 NTD (human) (UniProt Q9ULG6); experiment: co-IP; HEK293 lysates of singly transfected cells mixed, anti-myc agarose beads, IGEPAL IP buffer, 4°C, 15 h; immunoblot
T7 sequence: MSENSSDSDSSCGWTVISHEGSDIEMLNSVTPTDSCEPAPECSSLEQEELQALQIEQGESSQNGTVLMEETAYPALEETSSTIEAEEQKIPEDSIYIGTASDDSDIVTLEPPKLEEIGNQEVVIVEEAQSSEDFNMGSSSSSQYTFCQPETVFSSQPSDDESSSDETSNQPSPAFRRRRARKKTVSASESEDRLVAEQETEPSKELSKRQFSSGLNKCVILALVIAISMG

[7] = target: T8, myc-CCPG1 NTD truncated from residue 146 onward (human) (UniProt Q9ULG6); experiment: as above
T8 sequence: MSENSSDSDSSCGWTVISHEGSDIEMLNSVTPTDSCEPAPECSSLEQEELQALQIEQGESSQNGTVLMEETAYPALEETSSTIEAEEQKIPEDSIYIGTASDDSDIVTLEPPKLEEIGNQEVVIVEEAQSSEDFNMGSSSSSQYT

[8] = target: T9, myc-CCPG1 NTD with deletion of aa 107–112 (human) (UniProt Q9ULG6); experiment: as above
T9 sequence: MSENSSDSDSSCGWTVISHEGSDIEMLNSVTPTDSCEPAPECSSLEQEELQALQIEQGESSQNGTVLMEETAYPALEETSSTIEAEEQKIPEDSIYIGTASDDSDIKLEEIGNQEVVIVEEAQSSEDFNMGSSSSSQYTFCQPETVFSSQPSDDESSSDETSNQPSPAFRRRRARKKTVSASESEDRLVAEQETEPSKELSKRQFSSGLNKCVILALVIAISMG

[9] = target: T10, myc-CCPG1 NTD with deletion of aa 82–119 (human) (UniProt Q9ULG6); experiment: as above
T10 sequence: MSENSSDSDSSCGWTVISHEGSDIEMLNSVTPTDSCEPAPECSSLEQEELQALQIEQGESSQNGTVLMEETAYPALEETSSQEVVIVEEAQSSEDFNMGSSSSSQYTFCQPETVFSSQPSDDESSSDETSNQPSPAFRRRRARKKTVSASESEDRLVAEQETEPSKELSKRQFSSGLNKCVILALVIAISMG

[10] = target: T11, myc-CCPG1 NTD with deletion of aa 99–105 (human) (UniProt Q9ULG6); experiment: as above
T11 sequence: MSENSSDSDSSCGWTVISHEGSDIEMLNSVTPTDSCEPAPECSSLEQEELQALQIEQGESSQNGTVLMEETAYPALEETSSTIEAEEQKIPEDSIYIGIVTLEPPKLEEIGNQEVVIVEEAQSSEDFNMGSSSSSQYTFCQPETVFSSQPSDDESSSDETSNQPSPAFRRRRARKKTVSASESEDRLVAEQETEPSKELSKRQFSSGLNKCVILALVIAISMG

[11] = target: T12, GST-CCPG1 NTD (bacterial) (1-230) (human) (UniProt Q9ULG6); experiment: pull-down; GST-CCPG1 NTD pre-purified on glutathione Sepharose beads, incubated with purified recombinant protein (His-GABARAP or His-FIP200) in IGEPAL IP buffer, 4°C; immunoblot; both purified
T12 sequence: T7 sequence

[12] = target: T13, CCPG1 peptide array region A (aa 101–115) (human) (UniProt Q9ULG6); experiment: peptide or protein array; cellulose membrane spotted with 15-mer CCPG1 peptides (1-55), blocked with 5% BSA/TBST, probed with recombinant FIP200 for 1 hour, detected with rabbit anti-FIP200 and HRP secondary; both purified
T13 sequence (peptide): SDDSDIVTLEPPKLE

[13] = target: T14, CCPG1 peptide array region B (aa 169–187) (human) (UniProt Q9ULG6); experiment: as above
T14 sequence (peptide): NQPSPAFRRRRARKKTVSA

[14] = target: T15, CCPG1 peptide array region C (aa 205–223) (human) (UniProt Q9ULG6); experiment: as above
T15 sequence (peptide): ELSKRQFSSGLNKCVILAL

[15] = target: T3, myc-CCPG1 (full-length, 6x myc) (human); experiment: co-IP; HEK293 lysates of singly transfected cells mixed, anti-myc agarose beads, IGEPAL IP buffer, 4°C, 15 h; immunoblot

binding [1]: binds
binding [2]: binds
Substance: FIP200 (endogenous, A549) (from UniProt Q8TDY2 1-1594)

binding [3]: binds
binding [4]: no binding
binding [5]: binds
binding [6]: binds
binding (myc-CCPG1 NTD (human)): binds
binding [7]: binds
binding [8]: no binding
binding [9]: no binding
binding [10]: no binding
Substance: FLAG-FIP200 (p3xFLAG-CMV10-hFIP200, human FIP200 1-1594) (from UniProt Q8TDY2 1-1594)

binding [11]: binds
binding [12]: binds
binding [13]: no binding
binding [14]: no binding
Substance: Recombinant His-FIP200 (from UniProt Q8TDY2 1-1594)

binding [15]: binds
Substance: FLAG-FIP200 (1,279–1,594) (from UniProt Q8TDY2 1279-1594) (domain or fragment)
